Data from PubChem BioAssay AID651820 (National Center for Advancing Translational Sciences (NCATS), 2012).
In all, about 340,000 compounds went through this assay and about 12,000 (3.5%) were called active. The shares of active, inactive and inconclusive entries below differ from those in the screen. Calls follow the shape of the dose curve; as a rule, active = well fitted inhibition curve with a large enough effect; inconclusive = small, poorly fitted or top-dose-only effect, or another doubt; inactive = no such curve, though single readings can be large or run the other way. Potencies of inconclusive entries are left out as doubtful fits.

assay: qHTS Assay for Inhibitors of Hepatitis C Virus (HCV); conditions: Huh7.5.1 HCVcc-Cre (HCVcc is cell-culture hepatitis C virus) infection, luciferase reporter, 44 h; activity change, negative = inhibition: at 41.8 µM (top of the series)
In short: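 Seed cells (1,000/well) for 4 h; treat with compound and infect with HCVcc-Cre, moi about 0.5. Incubate 44 h, then detect luciferase activity.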
% is scaled to controls: 0 for no effect and ±100 for the full control effect; potency is read from the fitted curve at half-maximal effect; tags tell the direction and shape of the fitted curve.

SMILES	Potency	activity change, negative = inhibition
CN1CCN(c2ccccc2NC(=O)COc2ccc(C3CCCCC3)cc2)CC1	inconclusive [inhibitor, single point]	
CCOC(=O)C1(NC(=O)CN2C(=O)c3ccccc3C2=O)CCCC1		inactive: 26.3%
CN(C(=S)NC(=O)C1CC1)c1ccc(O)cc1	inconclusive [inhibitor, single point]	
Cc1cc(N2CCCCC2)nc(NCc2ccccc2)n1	inconclusive [inhibitor, partial curve, poor fit]	
CCS(=O)(=O)N1CCC(C(=O)Nc2ccccc2OC)CC1		inactive: -7.44%
COC(=O)c1cc2c(s1)-c1ccc(OC)cc1CC2	inconclusive [inhibitor, single point]	
COCCNC(=O)c1cccc(OC2CCN(Cc3cccc(SC)c3)CC2)c1	inconclusive [inhibitor, partial curve]	
Cc1cc(C)c(NC(=O)Cn2ncc3ccccc32)c(C)c1	inconclusive [inhibitor, single point]	
COc1ccccc1OCc1nnc(SCC(=O)NCc2ccco2)n1Cc1ccco1		inactive: -4.63%
CCOC(=O)C1=C(O)CSC1=Nc1ccccc1		inactive: 17.5%
Cc1ccccc1N1C(=O)C2CCCN2C1=S (stereo not drawn)	inconclusive [inhibitor, partial curve]	
CCN(C(=O)COc1ccc(C(=O)c2ccccc2)cc1)c1ccccc1	inconclusive [inhibitor, single point]	
Cc1cc(C(=O)COC(=O)c2ccc3c(c2)NC(=O)CS3)c(C)n1CC1CCCO1 (stereo not drawn)	inconclusive [inhibitor, single point]	
CCNc1nc(NCC)n2c(SCC(=O)Nc3cccc(Cl)c3)nnc2n1	inconclusive [inhibitor, partial curve, poor fit]	
COc1ccc(CSc2nc(C)cc(C)c2S(C)(=O)=O)cc1	inconclusive [inhibitor, single point]	
NC(=O)N=Nc1c2[nH]c3ccccc3nc-2c2ccccc12	inconclusive [inhibitor, full curve]	
Cc1ccc(NC(=O)CNc2ccc(Cl)c(Cl)c2)cc1S(=O)(=O)N(C)C	active: 6.31 µM	
CCOc1ccccc1NC(=O)c1cccc(NC(=O)c2ccco2)c1	active: 3.16 µM	
CCOc1ccccc1NC(=O)CSc1nnc(CNC(=O)c2cc(OC)c(OC)c(OC)c2)o1	inconclusive [inhibitor, single point]	
CN(C)c1ccnc2c[cH-]cc12.[Fe].c1ccc(-[c-]2[c-](-c3ccccc3)[c-](-c3ccccc3)[c-](-c3ccccc3)[c-]2-c2ccccc2)cc1 (stereo not drawn)	inconclusive [inhibitor, full curve, poor fit]	
Cc1cccc(NC(=O)c2c(O)c3ccccc3n(C)c2=O)c1	inconclusive [inhibitor, single point]	
CCCN(CC(=O)Nc1ccccc1C)C(=O)C1CC(=O)N(c2ccccc2C(C)CC)C1 (stereo not drawn)	inconclusive [inhibitor, single point]	
O=S1(=O)CCC(NC(=S)Nc2ccccc2)C1 (stereo not drawn)		inactive: 13.3%

SMILES	Potency	activity change, negative = inhibition
COc1ccc(/C=C/C(=O)NC(=S)N2CCN(c3ccccc3OC)CC2)cc1		inactive: -12.6%
CCN1C(=O)[C@H]2[C@@H](c3ccc(-c4ccc(F)cc4)c(OC)c3)N3CCC[C@@]3(C(=O)OC)[C@H]2C1=O	active: 3.16 µM	
CC(C)CCNC(=O)C(c1ccc(O)cc1)N(Cc1cccs1)C(=O)C1COc2ccccc2O1 (stereo not drawn)	active: 12.6 µM	
Cc1cc(/C=N/n2c(COc3ccccc3C)nc3ccccc3c2=O)c(O)c([N+](=O)[O-])c1	inconclusive [inhibitor, partial curve]	
COc1ccc(C2N=C(c3ccccc3)NC(c3ccccc3)=N2)cc1		inactive: 6.9%
CCn1c(SCC(=O)c2ccccc2)nc2c(c1=O)SC(C)C2 (stereo not drawn)	inconclusive [inhibitor, partial curve]	
COc1cc2c(c(OC)c1OC)-c1ccc(SC)c(=O)cc1C(NC=O)CC2 (stereo not drawn)		inactive: -40.2%
CCOCCc1nn2c(=O)cc(CSCC(=O)Nc3cccc(C)c3C)nc2s1	inconclusive [inhibitor, single point]	
CC(C)C(=O)Nc1ccc2nn(-c3ccccc3)nc2c1	inconclusive [inhibitor, single point]	
CCN(CC)CCNC(=O)c1ccc(NC(=O)c2cccc(S(=O)(=O)N3CCCCCC3)c2)cc1	inconclusive [inhibitor, partial curve]	
O=C(NC1CCN(Cc2ccccc2)CC1)c1cccc(S(=O)(=O)Nc2ccc(SC(F)F)cc2)c1	active: 2.82 µM	
COc1cccc(-c2nc(CS(=O)(=O)CC(=O)Nc3c(C)cccc3C)c(C)o2)c1	inconclusive [inhibitor, full curve, poor fit]	
CC(C)[C@@H]1CC[C@@H](C)C[C@H]1OC(=O)C[n+]1cc(-c2ccc(Cl)cc2)n2c1CCCCC2		inactive: -15%
COc1ccc(C2=Nn3c(nnc3C3CCCCC3)SC2)cc1OC	inconclusive [inhibitor, single point]	
CCCc1nc2oc3cc(OC)ccc3c(=O)c2c(=O)n1Cc1ccco1		inactive: -2.31%
CCCCCC(=O)Nc1cccc(C2=NOC3(C2)C[C@@H](C(N)=O)N(C(=O)c2cc([N+](=O)[O-])cc([N+](=O)[O-])c2C)C3)c1 (stereo partly drawn)	inconclusive [inhibitor, single point]	
Cc1ccc(C2=NN=C(NC(=O)CSc3nncn3C)SC2)cc1	inconclusive [inhibitor, single point]	
Cc1cc2nccc(-c3ccc(Cl)cc3Cl)n2n1	inconclusive [inhibitor, single point]	
COc1ccc(Cl)cc1NC(=O)CCN1CCN(c2ccccc2C)CC1	inconclusive [inhibitor, partial curve]	
COc1ccc(NC(=O)Nc2ccc3c(c2)C(=O)N([C@@H](C)CO)C[C@@H](C)[C@@H](CN(C)S(=O)(=O)c2cn(C)cn2)O3)cc1		inactive: 28.4%
COc1ccc(-c2csc3ncnc(N4CCN(c5cccc(C)c5C)CC4)c23)cc1	inconclusive [inhibitor, single point]	
O=C(NCc1ccco1)C(=O)NCC1OCCN1S(=O)(=O)c1ccccc1 (stereo not drawn)		inactive: -7.89% [at 8.37 µM]
O=C(CN1C(=O)NC2(CCCCCCC2)C1=O)Nc1ccc(Br)cc1	active: 31.6 µM	

SMILES	Potency	activity change, negative = inhibition
CCOc1ccc(OCC)c(NC(=O)CN2CCC(NC(=O)c3cccc(F)c3)CC2)c1	inconclusive [inhibitor, partial curve]	
O=C1NC(=O)N(c2ccccc2F)C(=O)/C1=C/c1cn(CC(=O)N2CCOCC2)c2ccccc12		inactive: -6.09%
Nc1ccc2nc(-c3ccccc3)[nH]c2c1	inconclusive [inhibitor, full curve, poor fit]	
CC(=O)Nc1ccc(-c2csc(NC(=O)C3CCN(S(=O)(=O)c4cccs4)CC3)n2)cc1	inconclusive [inhibitor, single point]	
CC(C)COc1ccc(C(=O)Nc2ccc(SC(F)F)cc2)cc1	inconclusive [inhibitor, partial curve]	
CC1CCC(NC(=O)CC(C)(C)Cc2nc3ccccc3c(=O)[nH]2)CC1 (stereo not drawn)	inconclusive [inhibitor, single point]	
O=C(COc1ccc(Br)cc1)Nc1ccc([N+](=O)[O-])cn1		inactive: 2.2%
Cc1ccc(SC(C)C(=O)Nc2c(C)n(C)n(-c3ccccc3)c2=O)cc1 (stereo not drawn)		inactive: 12.8%
Cc1ccc(OCC(=O)Oc2c(C)cccc2C)cc1C		inactive: 6.59%
COc1ccc(S(=O)(=O)/N=C2\C=C(Nc3ccc(O)cc3)C(=O)c3ccccc32)cc1	active: 5.62 µM	
Cc1ccc2ccc(C3C(=O)c4ccccc4C3=O)nc2c1	inconclusive [inhibitor, single point]	
CCCCCCCCNc1ncnc2[nH]ncc12	active: 11.2 µM	
Cc1cc2nc(-c3ccc(SCc4ccccn4)nc3)[nH]c2cc1C	inconclusive [inhibitor, partial curve, poor fit]	
Cc1oc(-c2ccccc2)nc1CS(=O)CC(=O)NC1CCCC1 (stereo not drawn)		inactive: 5.34%
Cc1ccc(S(=O)(=O)C2(C(=O)N3CCN(c4cc(C)ccc4C)CC3)CC2)cc1	inconclusive [inhibitor, single point]	
O=C(NC1CCCCCC1)C1CCC(CNS(=O)(=O)c2ccc(Br)s2)CC1 (stereo not drawn)	inconclusive [inhibitor, single point]	
COc1ccc(/C=C/C(=O)OCc2cc(=O)n3c(n2)sc2ccccc23)cc1	inconclusive [inhibitor, single point]	
Cc1cc(OCCn2cc(/C(N)=N/O)c3ccccc32)ccc1Cl	active: 7.08 µM	
Oc1cc2c(cc1CN1CCN(c3ccccc3)CC1)CCC2	inconclusive [inhibitor, single point]	
O=c1c2cc(NC(=S)NCCCN3CCC(Cc4ccccc4)CC3)ccc2nc2n1CCCCC2	inconclusive [inhibitor, partial curve]	
Cc1oc2c(c1C(=O)Nc1cccc3ccccc13)CCCC2	inconclusive [inhibitor, single point]	
CC(OC(=O)/C(C#N)=C/c1ccc(N(C)C)cc1)C(=O)N(C)c1ccccc1 (stereo not drawn)	inconclusive [inhibitor, partial curve]	
